# Assay results taken from PubChem BioAssay AID488969 (Vanderbilt High Throughput Screening Facility, 2010).
# Over roughly 110,000 compounds, “z-score” has its median near -0.1; the highest 2% begin near 2. The list shows a part of the results. Activity calls are given as the source filed them.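 How the source made its calls: active means z-score in the third read window above 3 or below -3; inactive means the rest.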
# Target: Metabotropic glutamate receptor 8 (Rattus norvegicus) (UniProt P70579)
# Sequence of UniProt P70579 (P70579 whole entry, looked up): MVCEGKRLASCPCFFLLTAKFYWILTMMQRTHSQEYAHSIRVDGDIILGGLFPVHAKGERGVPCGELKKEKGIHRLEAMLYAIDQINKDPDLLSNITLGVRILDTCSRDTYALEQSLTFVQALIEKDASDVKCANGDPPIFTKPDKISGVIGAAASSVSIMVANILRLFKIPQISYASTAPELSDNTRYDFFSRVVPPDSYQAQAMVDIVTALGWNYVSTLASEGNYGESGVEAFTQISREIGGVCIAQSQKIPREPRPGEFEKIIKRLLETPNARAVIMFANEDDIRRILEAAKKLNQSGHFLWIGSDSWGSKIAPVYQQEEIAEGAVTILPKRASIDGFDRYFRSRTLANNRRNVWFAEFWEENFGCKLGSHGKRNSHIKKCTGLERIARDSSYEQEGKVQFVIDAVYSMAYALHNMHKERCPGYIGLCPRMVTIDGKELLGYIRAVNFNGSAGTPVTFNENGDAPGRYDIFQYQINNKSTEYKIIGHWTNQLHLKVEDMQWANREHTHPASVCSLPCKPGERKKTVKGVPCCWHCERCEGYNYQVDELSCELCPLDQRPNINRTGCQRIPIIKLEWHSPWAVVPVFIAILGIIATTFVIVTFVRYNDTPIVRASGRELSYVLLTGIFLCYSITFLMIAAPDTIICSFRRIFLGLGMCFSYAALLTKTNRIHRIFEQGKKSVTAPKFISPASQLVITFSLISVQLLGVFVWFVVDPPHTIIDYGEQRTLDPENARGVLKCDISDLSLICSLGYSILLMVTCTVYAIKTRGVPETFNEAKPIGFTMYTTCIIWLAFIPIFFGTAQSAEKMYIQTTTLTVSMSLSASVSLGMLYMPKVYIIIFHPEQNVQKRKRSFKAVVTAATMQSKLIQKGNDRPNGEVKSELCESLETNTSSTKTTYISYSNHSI
# Assay: mGluR8 Gi/Go-coupled signaling modulation – cell-based, rat, thallium flux, HTS, primary screen (AID 488969)
# Settings: HEK293 rat mGluR8, GIRK (G protein-gated inwardly rectifying potassium channel) thallium flux, FluoZin2; at 10 µM; stronger effect = higher value; submaximal glutamate (EC20) added with thallium
row,SMILES,z-score
1,Cc1sc2ncnc(SCC(=O)NC(=O)NCc3ccco3)c2c1C,2.66
2,COC(=O)N/N=C/c1cn(Cc2ccc(Cl)cc2Cl)c2ccccc12,-0.119
3,CCn1ncc(Br)c1C(=O)Nc1ccc(F)cc1F,1.02
4,CC1CC(C)(C)N2C(=O)C3(Nc4ccccc4S3)c3cccc1c32 (stereo unspecified),-0.401
5,Cn1c(=O)c2c(nc(CN3CCc4ccccc4C3)n2Cc2ccc(Cl)cc2)n(C)c1=O,0.185
6,COc1ccccc1C1CN=NC12CCCc1ccccc1C2=O (stereo unspecified),0.0169
7,CC(=O)/C(=N/Nc1cccc(Cl)c1)N1CCOCC1,-0.211
8,CCc1nc2ccc(C(=O)Nc3cccc(C(C)=O)c3)cc2nc1CC,-0.283
9,Cc1nc2c(C(=O)NCc3cccs3)cnn2c(C)c1Cc1ccc(F)cc1,-0.267
10,COC(=O)C1CCN(CC(N)=O)CC1,-0.348
11,CC1(C)CC(=O)C2=C(C1)C(c1cn(-c3ccccc3)nc1-c1ccccc1)C(C#N)=C(N)O2 (stereo unspecified),-0.419
12,O=C(Nc1ccc(N2C(=O)C3C4C=CC(C4)C3C2=O)cc1)Nc1nnc(C(F)(F)F)s1 (stereo unspecified),0.0495
13,Cc1c(Cl)cccc1NC(=O)C1Cc2ccccc2CN1C(=O)c1ccccc1 (stereo unspecified),-0.428
14,CCc1ccc(N2C(=O)C(Cl)=C(N3CCOCC3)C2=O)cc1,-0.428
15,O=C(c1ccc2c(c1)OCCO2)C1CCN(C(=O)c2ccc(F)cc2)CC1,-0.759
16,Cc1nn(C)c(C(=O)NNC(=S)NCc2ccco2)c1Cl,0.7
17,O=C(CCCN1C(=O)/C(=C\c2cccs2)SC1=S)Nc1cccnc1,-0.171
18,CCc1nc(SCC(=O)c2cccs2)c2oc3ccccc3c2n1,0.0688
19,CC(=O)Nc1ccc(S(=O)(=O)NCC2CCC(C(=O)NCCC3=CCCCC3)CC2)cc1 (stereo unspecified),-0.553
20,COC(=O)C(O)(CC(=O)Nc1cccc(SC)c1)C(F)(F)F (stereo unspecified),0.0313
21,COC(=O)c1c(NC(=O)Cc2ccccc2)sc(C)c1C,-0.12
22,CNC(=O)c1cc2cc(OC)ccc2oc1=O,-0.746
23,CCOC(=O)C1/C(=N\O)CC(C)(O)C(C(=O)OCC)C1c1ccc(N(C)C)cc1 (stereo unspecified),1.02

row,SMILES,z-score
1,O=C(CSc1nccn1-c1ncc(C(F)(F)F)cc1Cl)c1ccc(Br)cc1,-0.34
2,CC(C)Cc1nnc(NC(=O)CCC(=O)Nc2ccc(F)cc2)s1,1.22
3,Cc1nnc(SCC(=O)N2CCC(C(=O)Nc3nccs3)CC2)n1Cc1ccccc1,-0.23
4,CC1(c2ccc3c(c2)OCO3)NC(=O)N(CC(=O)Nc2ccc(N3CCOCC3)cc2)C1=O (stereo unspecified),-0.0366
5,CC(=O)Nc1nc(NC(=O)/C=C/c2ccccc2)n(-c2ccccc2)n1,-0.149
6,CC(C)[C@H](NC(=O)Nc1ccccc1F)C(=O)O,-0.164
7,CCCCCCNC(=O)CC(c1ccccc1)c1cc(Br)ccc1O (stereo unspecified),-0.137
8,CC1(C)Cc2nc(NCCCO)c(C#N)cc2CO1,2.93
9,CCOc1ccc(C(=O)NC(=S)Nc2ccc(NC(=O)c3ccco3)c(C)c2)cc1[N+](=O)[O-],-0.187
10,Cc1cccc2cc(C(c3nnnn3C(C)(C)C)N(Cc3ccco3)CC3CCCO3)c(=O)[nH]c12 (stereo unspecified),-0.222
11,Cc1ccc(C2=NNC(C(O)C(O)C(O)C(O)CO)S2)cc1 (stereo unspecified),0.187
12,O=C(O)CN1C(=O)NC2NC(=O)NC21 (stereo unspecified),-0.238
13,Oc1ccc(-c2nc3c4c(ncn3n2)-c2ccccc2CC42CCCC2)cc1,-0.239
14,Cc1cc(NC(=O)c2cc(-c3ccccc3)on2)n(-c2ccccc2)n1,0.353
15,Cc1ccc(S(=O)(=O)N2CCN(c3nc(C)nc4sc5c(c34)CCC(C)C5)CC2)cc1 (stereo unspecified),0.0765
16,Cc1nc2nc(SCC(=O)c3ccc([N+](=O)[O-])cc3)[nH]c2cc1Br,-0.471
17,Cn1c(C(=O)N2CCN(Cc3ccccc3)CC2)cc2c(=O)n(C)c3ccccc3c21,-0.786
18,O=C(Nc1cccc(F)c1)c1ccc(CSc2ccccc2)o1,-0.331
19,COc1ccc(NC(=O)CC(C)C)c([N+](=O)[O-])c1,-0.11
20,COc1cc(-c2nc3ccccc3s2)ccc1O,-0.238
21,N#Cc1ccc(OCC(=O)OCC(=O)NCCC2=CCCCC2)cc1,-1
22,CCC(=O)NC(c1cccs1)c1cc([N+](=O)[O-])c2cccnc2c1O (stereo unspecified),-0.0253
23,CC(C)NC(=O)c1ccccc1NC(=O)/C=C/c1ccc([N+](=O)[O-])cc1,-0.137

row,SMILES,z-score
1,COc1cc(/C=N/n2cnc3scc(-c4cccs4)c3c2=O)cc(OC)c1OC,-0.232
2,CCOc1ccc(NC(=O)c2ccc(CNc3c(NC4CCCCC4)c(=O)c3=O)cc2)cc1,1.02
3,O=C(NC1CCCCCCC1)C1CCCN(S(=O)(=O)c2cnc[nH]2)C1 (stereo unspecified),-0.107
4,O=C(NC(=S)N1CCN(C/C=C/c2ccccc2)CC1)c1c(F)cccc1F,1.73
5,Cc1cc(C)c(C)c(S(=O)(=O)N2C(=S)NC(=O)C2CC(C)C)c1C (stereo unspecified),0.844
6,O=[N+]([O-])/C(C(Cl)=C(Cl)Cl)=C(\Nc1ccc(F)cc1)n1cncn1,-0.0258
7,O=c1cc(-c2c(F)c(F)c(F)c(F)c2F)oc2ccccc12,0.222
8,CC(=O)NC(=S)Nc1ccccc1C(=O)Nc1ccccc1,-0.172
9,CCn1cnc2scc(-c3ccccc3)c2c1=O,-0.164
10,Cc1cc(C)c2nc(SCCc3ccccc3)nc(C)c2c1,-0.131
11,Clc1ncnc2scc(-c3ccccc3)c12,-0.029
12,CCN1CCN(CCCNC(=O)Cn2cc3c(n2)CCCC3)CC1,-0.235
13,CCCCOC(=O)c1ccc(S(N)(=O)=O)o1,-0.13
14,O=C(Nc1nccs1)c1ccc(Cl)s1,0.227
15,COc1ccc(OCCOCCN2CCOCC2)cc1,0.0364
16,Cc1ccsc1-c1nc(CSCC(=O)NCc2ccc3c(c2)OCO3)c(C)o1,-0.802
17,CCc1nn(-c2ccccc2)c2c1-c1cc(OC)c(OC)cc1C1(N2)C(=O)Nc2ccccc21 (stereo unspecified),-2.07
18,CCOC(=O)N1CCN(C(c2ccccc2)c2sc3nc(C)nn3c2O)CC1 (stereo unspecified),-0.0552
19,COc1cccc(CNCc2ccc(SC)cc2)c1OC,-0.19
20,CC1=C(C(N)=O)C(c2cccc(O)c2)n2nc(CCCO)nc2N1 (stereo unspecified),0.0986
21,Cc1ccc(C(=O)c2coc3ccc(O)c(Cl)c23)cc1,-0.251
22,CCOC(=O)/C(=N\Nc1ccccc1)c1csc(Nc2ccc(C)cc2)n1,0.099
23,Cn1c(SCC(=O)c2ccccc2)nnc1-c1ccco1,0.0167

row,SMILES,z-score
1,CCc1ccc2oc(-c3cccc(NC(=O)c4cccnc4)c3)nc2c1,0.415
2,Cc1nn(Cc2ccc(Cl)cc2)c(C)c1NC(=O)CSc1nc2c(c(C(F)(F)F)n1)CCc1ccccc1-2,-0.113
3,CCOC(=O)c1[nH]c(C)c(C(=O)N(CC)CC)c1C,0.0589
4,Cc1cccc(-c2nsc(SCC(=O)Nc3ccc4c(c3)OCO4)n2)c1,-0.13
5,COc1cc(NC(=O)Cc2cccs2)ccc1-n1cnnn1,0.734
6,O=C(CC(O)(C(F)(F)F)C(F)(F)F)Nc1ccc(Cl)c(Cl)c1,active: 6.91
7,COc1cc(NC(=S)NC(=O)c2cc(C)cc(C)c2)ccc1NC(=O)c1cccs1,0.589
8,COc1cc2c(cc1OC)C(C)N(C(=O)c1cc3ccccc3o1)CC2 (stereo unspecified),-0.858
9,CC(=O)c1c(C)[nH]c(C(=O)COC(=O)CN(C)S(=O)(=O)c2ccc(Cl)cc2)c1C,-1.07
10,Cc1ccc(NC(=O)/C(=C/c2ccco2)c2ccccc2)c(C)c1,-0.364
11,O=C(c1ccccc1C(=O)N1CCN(c2ccccc2)CC1)N1CCN(c2ccccc2)CC1,0.0347
12,COC(=O)c1c2c(nc3ccccc13)CCC2,-0.063
13,CC1=C2C(=O)OC(c3ccoc3)C2(C)CCC1 (stereo unspecified),-0.644
14,Cc1cc(Nc2c(C)n(C)n(-c3ccccc3)c2=O)c2ccccc2n1,-0.208
15,O=C(NCCNC1CCN(Cc2ccccc2)CC1)c1cccs1,-0.614
16,CCCCn1c(SCC2CCCO2)nc2cc(S(N)(=O)=O)ccc21 (stereo unspecified),-0.252
17,COCCCNC(=O)C12CCC(C)(C(=O)C1)C2(C)C (stereo unspecified),0.191
18,CCCc1cc(=O)oc2cc(C)c3c(C)coc3c12,-0.386
19,COc1ccc(OCCSc2n[nH]c(N)n2)cc1,0.104
20,C=CCSc1nnc(-c2cc3c(-c4ccccc4)nn(C)c3s2)n1C,0.199
21,Cc1ccc2oc3nc(C)c(C(=O)Nc4cccc(C(F)(F)F)c4)cc3c(=O)c2c1,-0.0551
22,CCC(C(=O)Nc1nccs1)(C(F)(F)F)C(F)(F)F,0.164
23,Cc1ccc(-c2csc(NC(=O)CSc3nc4ccccc4o3)n2)cc1,-0.324

row,SMILES,z-score
1,O=C(CSc1nc2ccccc2c(=O)n1-c1ccccc1)N1CCc2ccccc21,-0.051
2,CCOC(=O)N1CCN(C(=O)C2CCN(S(C)(=O)=O)CC2)CC1,0.0186
3,CC1CCN(C(=O)c2cc(-c3ccc(Cl)c(Cl)c3)on2)CC1,-0.111
4,COC(=O)[C@H](C(C)C)n1c(C)c(C(C)=O)c(C(C)=O)c1C,0.17
5,O=c1cc(CSc2nnnn2-c2ccccc2)nc2nc[nH]n12,-0.264
6,Oc1ccccc1Cn1c(-c2ccccc2O)nc2ccccc21,0.219
7,CN1C(=O)C(=C2CCCCCC2)SC1=S,-0.294
8,COc1ccc(C2C(C#N)=C(N)Oc3cc4c(cc32)OCO4)cc1 (stereo unspecified),-0.0829
9,COc1ccc2oc(C(=O)OCC(=O)NC(=O)NC(C)C)c(C)c2c1,0.0484
10,COc1ccc(CCn2c(=N)c(C(=O)NCc3ccco3)cc3c(=O)n4ccccc4nc32)cc1,0.369
11,CC1CCN(C(=O)c2ccc(C(=O)N3CCC(C)CC3)cc2)CC1,-0.275
12,CCN(CC(O)COc1ccc(OCC(O)CN(CC)C2CCCCC2)cc1)C1CCCCC1 (stereo unspecified),2.32
13,COc1cc(/C=N/n2cnnc2)ccc1OCc1ccc(C)cc1,-0.758
14,Cc1ccccc1NC(=S)NC(=O)CCc1ccccc1,2.94
15,Cc1cccn2c(=O)c3cc(C(=O)NCC4CCCO4)n(C)c3nc12 (stereo unspecified),-0.221
16,CCN(CC)c1ncnc2c1cnn2C,-0.228
17,CC(C)C(C(=O)O)N1C(=O)/C(=C/c2cccn2C)SC1=S (stereo unspecified),-0.593
18,COc1cccc(NC(=O)CSc2ncnc3c2cnn3Cc2ccccc2)c1,-0.23
19,Cc1ccccc1OCC(=O)N1N=C(c2cccnc2)CC1(O)C(F)(F)F (stereo unspecified),-0.147
